Test results: PubChem BioAssay AID1159614 (National Center for Advancing Translational Sciences (NCATS), 2016)
Among all 45,000 compounds or so, about 65 (0.1%) were called active. Calls follow the shape of the dose curve; as a rule, active = well fitted activation curve with a large enough effect; inconclusive = small, poorly fitted or top-dose-only effect; inactive = no such curve, though single readings can be large or run the other way. This is one part of the list.

molecular target: Galactocerebrosidase (Homo sapiens) (UniProt P54803); experiment: A Novel Cell-Based Assay to Identify Small Molecules for B -Galactocerebrosidase; conditions: 145M-Twi-hGALC-G270D cells (Twitcher mouse brain line with human GALC G270D), HMU-beta-Gal fluorescence, 48 h; activation: at the top concentration; also: 0% is about no effect; nearly all actives have a fitted effect of over 65% in size
UniProt P54803, sequence (P54803 whole entry, looked up): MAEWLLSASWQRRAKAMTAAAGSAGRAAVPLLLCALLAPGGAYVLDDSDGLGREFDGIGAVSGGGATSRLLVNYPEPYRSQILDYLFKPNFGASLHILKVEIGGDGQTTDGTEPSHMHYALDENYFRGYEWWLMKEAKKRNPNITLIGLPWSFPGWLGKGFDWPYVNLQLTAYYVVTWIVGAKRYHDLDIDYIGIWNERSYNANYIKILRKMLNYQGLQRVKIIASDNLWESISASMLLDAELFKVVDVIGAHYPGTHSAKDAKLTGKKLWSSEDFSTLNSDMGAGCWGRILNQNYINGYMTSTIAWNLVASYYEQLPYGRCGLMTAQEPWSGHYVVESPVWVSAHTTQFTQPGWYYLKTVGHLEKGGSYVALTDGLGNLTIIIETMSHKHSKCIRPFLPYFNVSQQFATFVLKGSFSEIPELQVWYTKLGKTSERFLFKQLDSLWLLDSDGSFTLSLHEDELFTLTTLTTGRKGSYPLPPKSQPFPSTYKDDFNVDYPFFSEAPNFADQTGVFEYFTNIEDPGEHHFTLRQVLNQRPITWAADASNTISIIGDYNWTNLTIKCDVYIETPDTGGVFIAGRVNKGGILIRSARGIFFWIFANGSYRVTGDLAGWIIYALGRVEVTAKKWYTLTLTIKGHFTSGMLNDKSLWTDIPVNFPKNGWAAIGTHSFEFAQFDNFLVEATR
Text: Lysosomal storage diseases (LSDs) are caused by genetic mutations in genes encoding proteins important for normal lysosomal function. Globoid cell leukodystrophy (GLD), mostly known as Krabbe disease, is a prototype of the neurological LSDs caused by deficiency of beta-galactocerebrosidase (GALC). In brain specimens of GLD patients, psychosine levels are substantially elevated. At elevated concentrations, psychosine becomes cytotoxic to neuronal cells, particularly to oligodendrocytes (OLG), neural cells responsible for myelin formation. Therefore, the biochemical disturbances in GLD are manifested by different degrees of brain demyelination resulting in a broad spectrum of neurological manifestations. Most of the FDA-approved therapies are based on enzyme replacement therapeutic (ERT) agents, which treat non-neurological symptoms of Gaucher disease, Fabry disease, few mucopolysaccharidoses and Pompe disease. Unfortunately, in GLD, a primarily neurological LSD, ERT agents, as large molecular weight molecules unable to cross the blood-brain barrier, which makes this an inefficacious therapeutic approach. In GLD, increasing the residual GALC activity just above the critical threshold (~10% of wild type enzymatic activity), the cytotoxic levels of psychosine will be reduced, avoiding the OLGs apoptosis and the subsequent demyelination process. This will translate in disease stabilization and amelioration of GLD patient symptoms.
A cell-based assay in 1,536-well plate format was developed to implement a quantitative high-throughput screening (qHTS) assay using GLD-disease relevant cells to identify small molecules that produce enhancements of the residual enzymatic activity levels of mutants GALC found and prevalent in GLD patients. Compounds that are active may therefore have some therapeutic application for GLD. After the treatment of live cells for a determined period, using a fluorescent GALC specific substrate, the mutant residual GALC activity is measured. This cell-based qTHS assay was used to screen part of the MLPCN library for small molecule able to increase the mutant GALC enzymatic activity. In this assay, increased fluorescent signal corresponds to enhanced levels of mutant GALC residual enzymatic activity. Activation is the desired outcome for this assay.
NIH Chemical Genomics Center [NCGC]
NIH Molecular Libraries Probe Centers Network [MLPCN]
Assay Submitter (PI): Gustavo Maegawa MD,PhD, University of Florida, Gainesville, FL
2)#Two cell lines were established for the assay: 145M-Twi-hGALC-G270D (brain-derived Twitcher cell line stably expressing human GALC-G270D) and 145M-Twi-hGALC-WT (same 145M-Twi stably expressing human GALC wild type). The Twitcher is the murine C57B/6 model for GLD with naturally occurring homozygous nonsense GALC mutation. The 145M-Twi cell line was established at Maegawa lab (Ribbens J et al 2014).
a.#Media: DMEM/F12 (1:1) with 10% fetal bovine-serum (FBS) with penicillin/streptomycin (PS-1X - 100 I.U./mL of penicillin+100 ug/mL of streptomycin).
b.#The 6-Hexadecanoylamino-4-methylumbelliferyl-b-D-galactoside (HMU-B-gal) substrate was prepared as per Wiederschain et al 1992. Using 20-mL borosilicate tubes, 2.20 mg of HMU-b-Gal was added in each tube to prepare substrate-film with a final air-nitrogen stream evaporation to remove all diluent solvents.
c.#The HMUb-Gal substrate buffer consists of 0.2 M Na2HPO4 (sodium phosphate dibasic)/ 0.1 M Citric Acid with the pH adjusted to 5.2 using HCl. Sodium Azide at 0.02% and Sodium Taurocholate (NaTC) at 1 mg/mL were added to this substrate buffer.
d.#The HMU-b-Gal stopping buffer consist of 0.5 M NaHCO3 (sodium bicarbonate) /0.5 M Na2CO3 (sodium carbonate). […] Triton X-100 at 0.25% was added.
4)#Preparation of HMU-b-Gal substrate tubes
Adding 18.6 mL of the HMUb-Gal substrate buffer to each 20-mL tube (2.20 mg of HMU-b-Gal) will reach a concentration of 0.2 mM. Vortex well the tube until the solution is fully homogenized (clear cloudy solution). […]

Structure (SMILES)	activation
CCc1ccc(NC(=O)c2cccn(Cc3cccc([N+](=O)[O-])c3)c2=O)cc1	inactive: -16.1%
CCCCc1ccc(NC(=O)c2cccn(Cc3ccc(Cl)cc3)c2=O)cc1	inactive: -20%
Cc1c(C(c2ccc(Cl)cc2Cl)c2c(O)c3ccccc3oc2=O)c(=O)n(-c2ccccc2)n1C (stereo unspecified)	inactive: -13.1%
O=c1c2ccccc2nc(/C=C\c2ccccc2F)n1-c1ccc(O)cc1	inactive: -16.1%
Cc1ccc(-n2c(/C=C/c3cc(Br)cs3)nc3ccccc3c2=O)cc1	inactive: -4.55%
Cc1ccccc1CN1C(=O)CN=C(c2ccccc2)c2cc(Cl)ccc21	inactive: 7.11%
COc1ccc(C(=O)Nc2ccc(Cl)cc2C(=O)c2ccccc2)c(OC)c1	inactive: -8.99%
Cc1ccc(OCC(=O)N2CCN(CCc3ccncc3)CC2)cc1C	inactive: -2.78%
COc1ccc(C(CN(C)C)C2(O)CCCCC2)cc1 (stereo unspecified)	inactive: -22%
CC(C)(C)OC(=O)c1ncn2c1[C@@H]1CCCN1C(=O)c1c(Br)cccc1-2	inactive: -12%
Cc1cc(-n2c(/C=C/c3cccs3)nc3ccccc3c2=O)ccc1Br	inactive: -10.3%
CCN(CC)CCOC(=O)C(O)(c1ccccc1)c1ccccc1	inactive: -23.4%
Cc1cc(-n2c(/C=C/c3ccc(Br)s3)nc3ccccc3c2=O)ccc1Br	inactive: -15.7%
CCOP(=S)(OCC)Oc1cc(C)nc(C(C)C)n1	inactive: -17.9%
CNC(C)(C)Cc1ccccc1	inactive: -19.8%
OC(O)C(Cl)(Cl)Cl	inactive: -9.88%
COc1ccc(/C=C/c2nc3ccccc3c(=O)n2-c2ccc(C)cc2)cc1O	inactive: -10.3%
C[C@]12CCC(=O)C(O)=C1CC[C@@H]1[C@@H]2CC[C@]2(C)C(=O)CC[C@@H]12	inactive: -12.5%
CC[C@H]1C[C@@H]2C[C@H]3c4[nH]c5ccc(OC)cc5c4CCN(C2)[C@@H]13	inactive: -9.75% [at 114 µM]

Structure (SMILES)	activation
O=C(Nc1ccon1)c1cccn(Cc2ccccc2)c1=O	inactive: -10.8%
c1ccc(C2CC2)c(OCC2=NCCN2)c1	inactive: -14.9%
Nc1cccc2c(N)cccc12	inactive: -13.8% [at 114 µM]
O=C(C1CCCN(S(=O)(=O)c2cccc3nsnc23)C1)N1CCN(c2cccc(Cl)c2)CC1 (stereo unspecified)	inactive: -50.1%
[Cl][In]([Cl])[Cl]	inactive: -12.6% [at 114 µM]
Cc1cccc(-n2c(/C=C/c3cn(C)c4ccccc34)nc3ccccc3c2=O)c1	inactive: -15.1%
O=C(O)CCCOc1ccc(Cl)cc1Cl	inactive: -7.64% [at 114 µM]
Cc1cc(NC(=O)c2cccn(Cc3cccc(Cl)c3)c2=O)no1	inactive: -5.38%
O=c1c(O)c(-c2ccc(O)c(O)c2)oc2cc(O)cc(O)c12	inactive: -34.1%
Cc1ccc(-c2nc(CN3C(=O)CN=C(c4ccccc4)c4cc(Cl)ccc43)c(C)o2)cc1	inactive: 14.3%
COCC(=O)N(c1c(C)cccc1C)C(C)C(=O)OC (stereo unspecified)	inactive: -13.6%
O=S1(=O)N(Cc2ccccc2)CCCN1Cc1cccc(Cl)c1	inactive: -2.3%
Cc1ccc(Cn2cccc(C(=O)Nc3cc([N+](=O)[O-])ccc3C)c2=O)cc1	inactive: -15.8%
CCCN(CCC)c1c([N+](=O)[O-])cc(S(N)(=O)=O)cc1[N+](=O)[O-]	inactive: -45.4% [at 114 µM]
O=C(COc1cccc(Cl)c1)N1CCN(CCc2ccncc2)CC1	inactive: -2.9%
O=C(COc1ccccc1Cl)N1CCN(CCc2ccncc2)CC1	inactive: 19.9%
N#Cc1cc2c(nc1SCC(=O)Nc1ccc(OC(F)(F)F)cc1)C1CCN2CC1	inactive: -1.07%
CC(Cc1ccccc1)NCCCCl (stereo unspecified)	inactive: -4.6%
CCC(OC(C)=O)C(CC(C)NC)(c1ccccc1)c1ccccc1 (stereo unspecified)	inactive: 2.59% [at 129 µM]

Structure (SMILES)	activation
CC(C)NCC(O)c1ccc(N)c(C#N)c1 (stereo unspecified)	inactive: -14.6%
CNCC(O)c1ccc(O)cc1 (stereo unspecified)	inactive: -14.4%
C[C@]12CCC(=O)C=C1CC[C@@H]1[C@@H]2CC[C@@]2(C)[C@H]1CC[C@]2(C)O	inactive: -14.1%
O=C(CCc1nc(C2=CCN(Cc3cccc(Cl)c3)CC2)no1)Nc1ccccc1F	inactive: -10%
COc1ccc(OCC(=O)N2CCN(Cc3cc(=O)n4nc(-c5ccccc5C)sc4n3)CC2)cc1	inactive: 10.3%
CC(=O)NS(=O)(=O)c1ccc(NC(=O)c2cccn(Cc3ccc(Cl)cc3)c2=O)cc1	inactive: -11.8%
O=c1c2ccccc2nc(/C=C\c2ccc(F)cc2)n1-c1ccccc1F	inactive: -3.75%
O=c1[nH]c2cc(Cl)ccc2n1C1CCNCC1	inactive: -13%
Cc1cccc(NC(=O)Cn2cc(C(=O)c3ccccc3)c3ccccc32)c1	inactive: 12.2%
CN(C)CCc1c[nH]c2cccc(OP(=O)(O)O)c12	inactive: 5.9% [at 114 µM]
CCS(=O)(=O)C(C)(C)S(=O)(=O)CC	inactive: -13.3%
Cc1c(C(c2ccc(F)cc2)c2c(O)c3ccccc3oc2=O)c(=O)n(-c2ccccc2)n1C (stereo unspecified)	inactive: -15.5%
O=C(COc1ccc(Cl)cc1)Nc1ccc(Cl)cc1C(=O)c1ccccc1	inactive: -6.87%
Nc1ccc([As](=O)(O)O)cc1	inactive: -13.7%
Cc1nnc(NC(=O)c2cccn(Cc3ccccc3F)c2=O)s1	inactive: -9.59%
S=C(SSC(=S)N1CCCCC1)N1CCCCC1	inactive: -7.81%
O=C1CC(c2c(F)cccc2Cl)c2c(c3ccccc3oc2=O)O1 (stereo unspecified)	inactive: -13.8%
CCOP(=O)(NC(C)C)Oc1ccc(SC)c(C)c1 (stereo unspecified)	inactive: -10.8% [at 114 µM]
